Whole data set: some 81,000 sequences, median “one-hybrid fitness for binding parS DNA” near -0.17, cut for the highest 2% near 0.51. Some of the results follow.
B1: Caulobacter ParB omega fusion; a variant is named by its letters at X, in order, B8GW30 (parent)
chain: MESVVVGEPGMSEGRRGLGRGLSALLGEVDAAPAQAPGEQLGGSREAPIEILQRNPDQPRRTFREEDLEDLSNSIREKGVLQPILVRPSPDTAGEYQIVAGERAWRAAQRAGLKTVPIMVRELDDLAVLEIGIIENVQRADLNVLEEALSYKVLMEKFERTQENIAQTIGKSXSHVANXMRLLXLPDEVQSYLVSGELTAXHARAIAAAADPVALAKQIIEGGLSVRETEALARKAPNLSAGKSKGGRPPRVKDTDTQALESDLSSVLGLDVSIDHRGSTGTLTITYATLEQLDDLCNRLTRGI

Variants of: B1
Test: one-hybrid fitness for binding parS DNA (scaled: cognate 1, non-cognate 0); higher = stronger binding
Settings: with parS DNA site
Procedure, shortened: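 The reporter was HIS3, with the binding site 19 bp from the promoter, in E. coli USO used for bacterial one-hybrid selection of Caulobacter ParB libraries with four specificity codons randomised. Growth was on M9 lacking histidine, with 0.1 mM IPTG and 5 mM 3-AT, for 48 hours at 37°C. Illumina sequencing covered plasmids before and after selection; three replicate libraries were pooled and variants with under 10 reads dropped. A fitness score is the log change in variant-to-wild-type read ratio, rescaled to the cognate and non-cognate references.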

| Variant | one-hybrid fitness for binding parS DNA |
| --- | --- |
| DGDT | ≤ 0.2 |
| RNPF | ≤ 0.2 |
| TFGF | ≤ 0.2 |
| QEHR | ≤ 0.2 |
| EPNG | ≤ 0.2 |
| LQKV | ≤ 0.2 |
| KIGR | ≤ 0.2 |
| GQAT | ≤ 0.2 |
| KALG | ≤ 0.2 |
| KRWW | ≤ 0.2 |
| SNNP | ≤ 0.2 |
| TAPY | ≤ 0.2 |
| FPRH | ≤ 0.2 |
| RIQQ | ≤ 0.2 |
| LSTR | ≤ 0.2 |
| PNAV | ≤ 0.2 |
| CLDR | ≤ 0.2 |
| PIQR | ≤ 0.2 |
| KVNE | ≤ 0.2 |
| SGAT | ≤ 0.2 |
| VSAM | ≤ 0.2 |
| YKPF | ≤ 0.2 |
| MSYG | ≤ 0.2 |
| GHLS | ≤ 0.2 |

| Variant | one-hybrid fitness for binding parS DNA |
| --- | --- |
| GLAW | ≤ 0.2 |
| AHHV | ≤ 0.2 |
| RVRI | ≤ 0.2 |
| HAAW | ≤ 0.2 |
| RRRA | 0.501 |
| TMYI | ≤ 0.2 |
| YSQV | ≤ 0.2 |
| VSCK | ≤ 0.2 |
| RTYP | ≤ 0.2 |
| PAKM | ≤ 0.2 |
| KRSR | ≤ 0.2 |
| PTTN | ≤ 0.2 |
| YLQW | ≤ 0.2 |
| PDYS | ≤ 0.2 |
| RWMR | ≤ 0.2 |
| EYHR | ≤ 0.2 |
| TITV | ≤ 0.2 |
| HQGS | ≤ 0.2 |
| GFLG | ≤ 0.2 |
| PQTM | ≤ 0.2 |
| HPIA | ≤ 0.2 |
| NEGN | ≤ 0.2 |
| KVSK | ≤ 0.2 |
| TLAP | ≤ 0.2 |

| Variant | one-hybrid fitness for binding parS DNA |
| --- | --- |
| FMSG | ≤ 0.2 |
| SIPW | ≤ 0.2 |
| VSCA | ≤ 0.2 |
| NDNR | ≤ 0.2 |
| PDGI | ≤ 0.2 |
| FDPG | ≤ 0.2 |
| TPCG | ≤ 0.2 |
| NWER | ≤ 0.2 |
| RAHF | 0.24 |
| SVIV | ≤ 0.2 |
| TSYC | ≤ 0.2 |
| CCKR | ≤ 0.2 |
| TNWA | ≤ 0.2 |
| QIRF | ≤ 0.2 |
| RYFS | 1.02 |
| NLTT | ≤ 0.2 |
| SYLH | ≤ 0.2 |
| YDFW | ≤ 0.2 |
| DQSA | ≤ 0.2 |
| PCDK | ≤ 0.2 |
| MPNF | ≤ 0.2 |
| GITT | ≤ 0.2 |
| RQQE | ≤ 0.2 |
| LNPR | ≤ 0.2 |

| Variant | one-hybrid fitness for binding parS DNA |
| --- | --- |
| NSQE | ≤ 0.2 |
| SMDN | ≤ 0.2 |
| DYIR | ≤ 0.2 |
| HIWE | ≤ 0.2 |
| QKPS | ≤ 0.2 |
| YHCG | ≤ 0.2 |
| NKDT | ≤ 0.2 |
| RKFI | ≤ 0.2 |
| NWRT | ≤ 0.2 |
| THTN | ≤ 0.2 |
| NGLW | ≤ 0.2 |
| LPIC | ≤ 0.2 |
| CSVC | ≤ 0.2 |
| VMGG | ≤ 0.2 |
| QHKL | ≤ 0.2 |
| GGFE | ≤ 0.2 |
| PQNG | ≤ 0.2 |
| RDKI | 0.227 |
| PAFA | ≤ 0.2 |
| IIYN | ≤ 0.2 |
| DTQV | ≤ 0.2 |
| HRGP | ≤ 0.2 |
| IRSE | ≤ 0.2 |
| GIKM | ≤ 0.2 |

| Variant | one-hybrid fitness for binding parS DNA |
| --- | --- |
| NRYT | ≤ 0.2 |
| ITRD | ≤ 0.2 |
| RNTD | ≤ 0.2 |
| QPPF | ≤ 0.2 |
| ARSM | ≤ 0.2 |
| FGDW | ≤ 0.2 |
| CDRS | ≤ 0.2 |
| STAA | ≤ 0.2 |
| APRT | ≤ 0.2 |
| ANHM | ≤ 0.2 |
| TVDM | ≤ 0.2 |
| CTDA | ≤ 0.2 |
| EWCS | ≤ 0.2 |
| GGTW | ≤ 0.2 |
| QIWL | ≤ 0.2 |
| HLQA | ≤ 0.2 |
| HKRK | ≤ 0.2 |
| QFGP | ≤ 0.2 |
| DLSS | ≤ 0.2 |
| SWKS | ≤ 0.2 |
| MPSI | ≤ 0.2 |
| LELS | ≤ 0.2 |
| WINC | ≤ 0.2 |
| CRMC | ≤ 0.2 |

| Variant | one-hybrid fitness for binding parS DNA |
| --- | --- |
| LSDW | ≤ 0.2 |
| LTRC | ≤ 0.2 |
| YRNL | ≤ 0.2 |
| FFAI | ≤ 0.2 |
| WMTT | ≤ 0.2 |
| QHPI | ≤ 0.2 |
| PDWN | ≤ 0.2 |
| GHLL | ≤ 0.2 |
| GAAR | ≤ 0.2 |
| QSMW | ≤ 0.2 |
| NAVG | ≤ 0.2 |
| NYKR | ≤ 0.2 |
| FTRL | ≤ 0.2 |
| RCGS | 0.945 |
| QLQD | ≤ 0.2 |
| GLVV | ≤ 0.2 |
| CEGG | ≤ 0.2 |
| HPWF | ≤ 0.2 |
| QCVL | ≤ 0.2 |
| ITNT | ≤ 0.2 |
| YSGG | ≤ 0.2 |
| GRNH | ≤ 0.2 |
| PVFY | ≤ 0.2 |
| PNIL | ≤ 0.2 |

| Variant | one-hybrid fitness for binding parS DNA |
| --- | --- |
| MYGL | ≤ 0.2 |
| ESAS | ≤ 0.2 |
| PNES | ≤ 0.2 |
| AHRK | ≤ 0.2 |
| PIAR | ≤ 0.2 |
| EQGS | ≤ 0.2 |
| HVCY | ≤ 0.2 |
| RDHT | ≤ 0.2 |
| HAKV | ≤ 0.2 |
| LPLK | ≤ 0.2 |
| LYHC | ≤ 0.2 |
| MESS | ≤ 0.2 |
| FVLR | ≤ 0.2 |
| LMMC | ≤ 0.2 |
| APEC | ≤ 0.2 |
| VTQM | ≤ 0.2 |
| PGYR | ≤ 0.2 |
| MKSA | ≤ 0.2 |
| GGCR | ≤ 0.2 |
| TVPG | ≤ 0.2 |
| RNAF | ≤ 0.2 |
| SSSR | ≤ 0.2 |
| SQYG | ≤ 0.2 |
| RIFP | 0.206 |

| Variant | one-hybrid fitness for binding parS DNA |
| --- | --- |
| VYDR | ≤ 0.2 |
| QVLC | ≤ 0.2 |
| QWMY | ≤ 0.2 |
| TQHS | ≤ 0.2 |
| TQID | ≤ 0.2 |
| DYGG | ≤ 0.2 |
| RESR | ≤ 0.2 |
| CIKS | ≤ 0.2 |
| VNVC | ≤ 0.2 |
| PIKG | ≤ 0.2 |
| SHCW | ≤ 0.2 |
| NHPR | ≤ 0.2 |
| NVCG | ≤ 0.2 |
| DRDF | ≤ 0.2 |
| YHCS | ≤ 0.2 |
| AFKF | ≤ 0.2 |
| QVSG | ≤ 0.2 |
| CSCD | ≤ 0.2 |
| QSAV | ≤ 0.2 |
| WMYP | ≤ 0.2 |
| NKVI | ≤ 0.2 |
| RCEY | 0.442 |
| RTSV | ≤ 0.2 |
| YILM | ≤ 0.2 |

| Variant | one-hybrid fitness for binding parS DNA |
| --- | --- |
| QCAE | ≤ 0.2 |
| QVCG | ≤ 0.2 |
| DHER | ≤ 0.2 |
| NLPD | ≤ 0.2 |
| YGAN | ≤ 0.2 |
| GFLA | ≤ 0.2 |
| NSKN | ≤ 0.2 |
| CISC | ≤ 0.2 |
| LHRN | ≤ 0.2 |
| SYVP | ≤ 0.2 |
| PYHS | ≤ 0.2 |
| DACW | ≤ 0.2 |
| INIL | ≤ 0.2 |
| QHSK | ≤ 0.2 |
| RKRD | ≤ 0.2 |
| QRIL | ≤ 0.2 |
| HQRA | ≤ 0.2 |
| RPCR | ≤ 0.2 |
| DRQH | ≤ 0.2 |
| SPQY | ≤ 0.2 |
| YSMV | ≤ 0.2 |
| RRVP | ≤ 0.2 |
| HMCR | ≤ 0.2 |
| FNDN | ≤ 0.2 |

| Variant | one-hybrid fitness for binding parS DNA |
| --- | --- |
| MSVC | ≤ 0.2 |
| TRLW | ≤ 0.2 |
| TTSW | ≤ 0.2 |
| RNWM | ≤ 0.2 |
| ETCS | ≤ 0.2 |
| QNSI | ≤ 0.2 |
| VKKA | ≤ 0.2 |
| MHQE | ≤ 0.2 |
| RQYE | ≤ 0.2 |
| NRSK | ≤ 0.2 |
| NHEC | ≤ 0.2 |
| FMND | ≤ 0.2 |
| DFAG | ≤ 0.2 |
| YNQG | ≤ 0.2 |
| WIHT | ≤ 0.2 |
| LKSE | ≤ 0.2 |
| AYSG | ≤ 0.2 |
| LVPG | ≤ 0.2 |
| EDFG | ≤ 0.2 |
| RPPT | ≤ 0.2 |
| LTHC | ≤ 0.2 |
| SAQF | ≤ 0.2 |
| LTDN | ≤ 0.2 |
| YSYS | ≤ 0.2 |

| Variant | one-hybrid fitness for binding parS DNA |
| --- | --- |
| EHFG | ≤ 0.2 |
| EVSD | ≤ 0.2 |
| AFRK | ≤ 0.2 |
| WLMR | ≤ 0.2 |
| KTKY | ≤ 0.2 |
| WSCT | ≤ 0.2 |
| LVLP | ≤ 0.2 |
| DFVD | ≤ 0.2 |
| EMQE | ≤ 0.2 |
| ARYN | ≤ 0.2 |
| QTNT | ≤ 0.2 |
| MMPH | ≤ 0.2 |
| MLPN | ≤ 0.2 |
| SILI | ≤ 0.2 |
| YHYL | ≤ 0.2 |
| LSLQ | ≤ 0.2 |
| RINS | 0.923 |
| TMSY | ≤ 0.2 |
| KDQS | ≤ 0.2 |
| YTLG | ≤ 0.2 |
| VSQA | ≤ 0.2 |
| LYVR | ≤ 0.2 |
| MRRG | ≤ 0.2 |
| MRTF | ≤ 0.2 |

| Variant | one-hybrid fitness for binding parS DNA |
| --- | --- |
| ECAV | ≤ 0.2 |
| AVWG | ≤ 0.2 |
| KPIG | ≤ 0.2 |
| RGGE | ≤ 0.2 |
| SEHL | ≤ 0.2 |
| AGYG | ≤ 0.2 |
| GGTS | ≤ 0.2 |
| MHPK | ≤ 0.2 |
| MVAC | ≤ 0.2 |
| NVVA | ≤ 0.2 |
| PKVR | ≤ 0.2 |
| LRCP | ≤ 0.2 |
| QRGI | ≤ 0.2 |
| RGAL | ≤ 0.2 |
| AECR | ≤ 0.2 |
| TGLG | ≤ 0.2 |
| GFVT | ≤ 0.2 |
| LVGL | ≤ 0.2 |
| THGA | ≤ 0.2 |
| MIRL | ≤ 0.2 |
| KKAV | ≤ 0.2 |
| VCTY | ≤ 0.2 |
| QVWW | ≤ 0.2 |
| NSLM | ≤ 0.2 |

| Variant | one-hybrid fitness for binding parS DNA |
| --- | --- |
| VNLG | ≤ 0.2 |
| SPLY | ≤ 0.2 |
| CIHS | ≤ 0.2 |
| VLTV | ≤ 0.2 |
| TKIK | ≤ 0.2 |
| QRGT | ≤ 0.2 |
| QVVW | ≤ 0.2 |
| NTNP | ≤ 0.2 |
| TGIC | ≤ 0.2 |
| QALW | ≤ 0.2 |
| STRV | ≤ 0.2 |
| ITGI | ≤ 0.2 |
| PIGC | ≤ 0.2 |
| FQHI | ≤ 0.2 |
| CSQS | ≤ 0.2 |
| CTAN | ≤ 0.2 |
| QACR | ≤ 0.2 |
| SYLG | ≤ 0.2 |

Reference: a collection of fitness landscapes (doi:10.1016/j.celrep.2020.107928)
